Results taken from publication PMC4336329 (PLoS ONE, 2015).
In all, about 310,000 compounds went through this assay and about 2,200 (0.71%) showed an effect of 50% or more. The effect is printed as a negative number. This is one part of the list.

What follows are compounds tested against human ether-à-go-go-related gene (hERG) potassium channel (human, UniProt Q12809) (assay: primary screen, population patch clamp on CHO cells stably expressing hERG).
human ether-à-go-go-related gene (hERG) potassium channel, sequence (Q12809 whole entry, looked up): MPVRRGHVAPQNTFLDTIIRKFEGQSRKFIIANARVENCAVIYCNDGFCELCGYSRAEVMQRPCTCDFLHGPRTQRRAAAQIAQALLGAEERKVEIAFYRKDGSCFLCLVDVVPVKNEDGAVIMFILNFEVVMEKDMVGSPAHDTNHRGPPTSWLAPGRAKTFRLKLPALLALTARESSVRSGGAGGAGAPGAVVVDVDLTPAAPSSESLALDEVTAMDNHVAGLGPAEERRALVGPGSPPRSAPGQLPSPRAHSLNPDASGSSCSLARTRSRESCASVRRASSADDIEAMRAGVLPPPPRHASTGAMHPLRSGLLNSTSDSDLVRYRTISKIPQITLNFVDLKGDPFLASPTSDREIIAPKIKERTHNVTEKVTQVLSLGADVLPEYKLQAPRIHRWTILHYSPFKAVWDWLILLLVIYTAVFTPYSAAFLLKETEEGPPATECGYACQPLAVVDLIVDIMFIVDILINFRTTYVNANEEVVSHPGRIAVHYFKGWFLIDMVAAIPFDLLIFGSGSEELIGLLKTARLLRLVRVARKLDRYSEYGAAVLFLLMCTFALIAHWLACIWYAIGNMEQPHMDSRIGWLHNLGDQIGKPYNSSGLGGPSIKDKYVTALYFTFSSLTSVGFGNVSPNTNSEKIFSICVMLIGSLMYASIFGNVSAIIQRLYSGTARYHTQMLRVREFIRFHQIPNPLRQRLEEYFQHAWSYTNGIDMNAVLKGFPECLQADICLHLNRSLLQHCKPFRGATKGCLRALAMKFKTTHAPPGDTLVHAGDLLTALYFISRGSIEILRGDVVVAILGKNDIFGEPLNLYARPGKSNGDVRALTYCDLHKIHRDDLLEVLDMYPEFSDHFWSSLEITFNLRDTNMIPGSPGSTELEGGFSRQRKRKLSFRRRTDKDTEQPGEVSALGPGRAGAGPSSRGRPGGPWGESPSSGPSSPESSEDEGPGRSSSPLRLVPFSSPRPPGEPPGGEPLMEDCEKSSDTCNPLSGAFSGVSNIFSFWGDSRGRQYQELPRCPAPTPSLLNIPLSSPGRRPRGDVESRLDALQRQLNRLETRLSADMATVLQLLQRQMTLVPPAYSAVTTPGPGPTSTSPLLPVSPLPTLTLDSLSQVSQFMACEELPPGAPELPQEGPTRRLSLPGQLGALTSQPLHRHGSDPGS

Row | Compound | hERG current change (%, negative = inhibition) at 1uM
1 | O=C(NCCC1=CCCCC1)C1CCN(S(=O)(=O)c2cccc3cccnc23)CC1 | 5.01%
2 | O=C(COC(=O)c1cccc(O)c1)NCc1ccc2c(c1)OCO2 | 9.24%
3 | O=C(CN(Cc1cccs1)C(=O)CNS(=O)(=O)c1ccc(F)cc1)NCc1ccco1 | 1.86%
4 | O=C(CSc1cccc(C(F)(F)F)c1)NC(=O)NCc1ccco1 | 8%
5 | CC(C)CCNC(=O)C1CCN(S(=O)(=O)c2ccc3nc4c(c(C(=O)O)c3c2)CCCCC4)CC1 | 29.8%
6 | COCCn1nnnc1CN1CCC(O)(c2cccc(C(F)(F)F)c2)CC1.Cl | 10.4%
7 | CC(Nc1nc(N2CCN(S(C)(=O)=O)CC2)nc2ccccc12)c1ccccc1 (centres unmarked) | -14%
8 | CC1CCN(C(C)C(=O)Nc2ccc(S(=O)(=O)N3CCCC3)cc2)CC1 (centres unmarked) | 2.91%
9 | CCOC(=O)N1CCC(NC(=O)CSCc2nc(-c3ccc(OC)cc3)oc2C)CC1 | 5.34%
10 | Cc1ccc(-c2csc(NC(=O)CCNC(=O)c3ccccc3Cl)n2)cc1 | 13.6%
11 | CC1CCCN(CC(=O)NC(=O)NC2CCCCC2)C1 (centres unmarked) | 9.06%
12 | CC(=O)Nc1ccc(NS(=O)(=O)c2ccc(Cl)s2)cc1 | -4.63%
13 | CCCCCCC(=O)Nc1nc(C)c(-c2csc(Nc3cc(Cl)ccc3C)n2)s1 | 9.86%
14 | O=S(=O)(c1cc(Cl)ccc1Cl)N1CC2CCCN2c2ccc(C(F)(F)F)cc21 (centres unmarked) | -5.66%
15 | Cn1c(=O)c2c(nc(SCC(=O)NCC3CCCO3)n2C)n(C)c1=O (centres unmarked) | 4.86%
16 | N#CC(C#N)=C1NC2(CCCC2)Cc2ccccc21 | 6.74%
17 | Cc1cc(C)nc(NC(=O)c2cc(Br)ccc2Cl)n1 | 13.8%
18 | COc1ccccc1S(=O)(=O)Cc1ccc(C(=O)NC2CCCCCC2)o1 | 8.53%
19 | CC(CCc1ccccc1)NC(=O)CCCn1ncn2c(cc3occc32)c1=O (centres unmarked) | -4.2%

Row | Compound | hERG current change (%, negative = inhibition) at 1uM
20 | O=C(CCOc1ccccc1)Nc1ccccc1F | 15.6%
21 | CC1CC(C)CN(CCCNC(=O)c2ccc(CNS(=O)(=O)c3ccc(F)cc3)cc2)C1 (centres unmarked) | 6.27%
22 | CN(c1ccc(C(=O)Nc2ccc(CC#N)cc2)cc1)S(C)(=O)=O | 16.1%
23 | O=C(Cn1c(-c2ccco2)nc2ccccc21)N1CCCCC1 | -2.25%
24 | COc1cccc(C2C=C(Nc3ccccc3)C(=O)N2c2ccccc2)c1 (centres unmarked) | 0.332%
25 | COc1cc(/C=C(\C#N)C(=O)NCC2CCCO2)ccc1OCCC(C)C (centres unmarked) | 9.62%
26 | O=C(Nc1cccc(F)c1)C1CCN(C(=O)c2ccccc2Cl)CC1 | 2.46%
27 | Cc1cccc(-c2nc(CN3CCN(C(=O)C4CCCO4)CC3)cs2)c1 (centres unmarked) | 9.39%
28 | CCN(C(=O)c1cc(S(=O)(=O)N2CCc3ccccc32)cn1C)c1ccccc1 | 3.92%
29 | CN(C)CCCN1c2ccccc2Sc2ccc(Cl)cc21.Cl | 5.56%
30 | CCN(Cc1ccc2c(c1)OCO2)C(=O)CSc1ncnc2sccc12 | 9.42%
31 | Cc1[nH]n(-c2ccccc2)c(=S)c1C=NCCCN=Cc1c(C)[nH]n(-c2ccccc2)c1=S | 13%
32 | O=C(Nc1ccccc1N1CCN(c2ccccc2)CC1)c1ccccc1F | 9.62%
33 | C=CCOc1ccc(C(c2c(C)n(C)n(-c3ccccc3)c2=O)c2c(C)n(C)n(-c3ccccc3)c2=O)cc1 | 14.2%
34 | CSCCC(NS(=O)(=O)c1ccccc1)C(=O)OCc1cc(=O)oc2cc(O)ccc12 (centres unmarked) | -18.6%
35 | CC(C)CNC(=O)COc1ccc(Sc2ccc(OCC(=O)NCC(C)C)cc2)cc1 | 0.848%
36 | COCCNC(=O)c1ccccc1NC(=O)CCSc1ccccc1 | 10.7%
37 | CCCN1CCC(=O)N(CCN=[N+]=[N-])CC1 | 9.31%
38 | CC(C)c1[nH]nc2c1C(C(C)C)C(C#N)=C(N)O2 (centres unmarked) | 3.8%

Row | Compound | hERG current change (%, negative = inhibition) at 1uM
39 | Cc1ccc(F)cc1NC(=O)COC(=O)COc1ccc(C#N)cc1 | -5.37%
40 | C=CCN(CC=C)CCOc1cc(C)ccc1[N+](=O)[O-].O=C(O)C(=O)O | 6.69%
41 | O=C(CN1CCN(Cc2ccccc2)CC1)Nc1ccc(S(=O)(=O)N2CCOCC2)cc1 | 12.1%
42 | COc1ccc(C(CC(=O)Nc2ccc(F)cc2)c2ccccc2)cc1 (centres unmarked) | 9.31%
43 | COc1ccc(CN2CCN(c3ccccn3)CC2)c(OC)c1C.O=C(O)C(=O)O | 5.42%
44 | C=CCn1c(Cc2csc(N)n2)nnc1SCC(=O)Nc1ccccc1C(F)(F)F | 5.66%
45 | CCOC(=O)c1ccccc1NC(=O)COc1cc(=O)n(CC)c2ccccc12 | 7.24%
46 | COc1cccc(N2CCN(S(=O)(=O)c3cc4c(cc3Cl)NC(=O)CO4)CC2)c1 | 10.1%
47 | N#Cc1nc(-c2ccc(F)cc2)oc1NCc1cccc2c1OCO2 | 13.6%
48 | CC(=O)C1=C(N2CCCCC2)CCC1=O | 13.2%
49 | COc1ccc(NC(=O)c2nc[nH]c2C(=O)N(C)Cc2ccccc2)cc1 | 1.7%
50 | Cc1ccccc1C(=O)OCC(=O)N(C)c1c(N)n(Cc2ccccc2)c(=O)[nH]c1=O | 10.5%
51 | O=C(C1CCN(c2ncnc3c2nc2n3CCCCC2)CC1)N1CCCCC1 | 23.1%
52 | O=C(Nc1ccccc1C(=O)N/N=C/c1ccco1)c1ccccc1Cl | 10.4%
53 | COC(=O)c1cc(NC(=O)c2cccc(C(F)(F)F)c2)c(=O)oc1C | 11.8%
54 | Cc1cc(Cl)ccc1NC(=O)/C=N/O | 10.3%
55 | CC(=O)Nc1ccc(SCC(=O)OCC(=O)NC(=O)NCc2ccco2)cc1 | 20.6%
56 | CC(c1ccccn1)N(CCN(C)C)C(=S)Nc1cccc(F)c1 (centres unmarked) | 1.35%
